The list shows a part of the results. No stated cut-off is given here; in the data, active = 3.2 or more and inactive = the rest. Only a few entries rise above the background.
Legend:
Experiment in all cases: enrichment score (SH2-bound / input frequency) (ratio); bacterial display of known human phosphotyrosine sites (pTyr-Var adds point mutants) read by sequencing; higher = stronger binding; tyrosines were phosphorylated by kinases first
Settings in all cases: peptide library: pTyr-Var
SHP2 C-SH2 domain E139D = molecular target: SHP2 C-SH2 domain E139D
[1] = molecular target: SHP2 C-SH2 domain wild-type
SHP2 N-SH2 domain L43F = molecular target: SHP2 N-SH2 domain L43F
SHP2 N-SH2 domain T42A = molecular target: SHP2 N-SH2 domain T42A
SHP2 N-SH2 domain T52S = molecular target: SHP2 N-SH2 domain T52S
[2] = molecular target: SHP2 N-SH2 domain wild-type

Measured: enrichment score
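Further: displayed peptides selected on beads carrying the immobilized SH2 domain, with library peptides lacking any tyrosine serving as negative controls.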

FFRDGYMPRQF [GSS_Y270_YF]
inactive: SHP2 C-SH2 domain E139D 0.715 | [1] 0.601 | SHP2 N-SH2 domain L43F 0.735 | SHP2 N-SH2 domain T42A 0.6 | SHP2 N-SH2 domain T52S 0.611 | [2] 0.651

GGKYSYLKVGH [GRM3_Y480]
inactive: SHP2 C-SH2 domain E139D 0.997 | [1] 1.05 | SHP2 N-SH2 domain L43F 1.13 | SHP2 N-SH2 domain T42A 1.02 | SHP2 N-SH2 domain T52S 0.935 | [2] 1.06

PDMHSYMVRYN [GRIN2D_Y732]
inactive: SHP2 C-SH2 domain E139D 0.855 | [1] 0.722 | SHP2 N-SH2 domain L43F 0.645 | SHP2 N-SH2 domain T42A 0.67 | SHP2 N-SH2 domain T52S 0.598 | [2] 0.574

NVGGKYSFLKV [GRM3_Y478_YF]
inactive: SHP2 C-SH2 domain E139D 0.924 | [1] 1.01 | SHP2 N-SH2 domain L43F 0.85 | SHP2 N-SH2 domain T42A 0.694 | SHP2 N-SH2 domain T52S 0.786 | [2] 0.949

PDMHSYMVRFN [GRIN2D_Y732_YF]
inactive: SHP2 C-SH2 domain E139D 0.749 | [1] 0.617 | SHP2 N-SH2 domain L43F 0.788 | SHP2 N-SH2 domain T42A 0.694 | SHP2 N-SH2 domain T52S 0.665 | [2] 0.851

KSRQIYDAYIM [GRK3_Y109_R104K]
inactive: SHP2 C-SH2 domain E139D 0.969 | [1] 0.807 | SHP2 N-SH2 domain L43F 0.716 | SHP2 N-SH2 domain T42A 0.728 | SHP2 N-SH2 domain T52S 0.975 | [2] 0.968

NVGGKYSYLKV [GRM3_Y478]
inactive: SHP2 C-SH2 domain E139D 1.09 | [1] 1.25 | SHP2 N-SH2 domain L43F 0.806 | SHP2 N-SH2 domain T42A 1.09 | SHP2 N-SH2 domain T52S 1.1 | [2] 1.31

PDGVEYLKNNP [GRIN3A_Y831_D835N]
inactive: SHP2 C-SH2 domain E139D 0.736 | [1] 0.749 | SHP2 N-SH2 domain L43F 0.957 | SHP2 N-SH2 domain T42A 0.704 | SHP2 N-SH2 domain T52S 0.864 | [2] 0.724

EIKLAYRRRPP [GRIN2B_Y1109_E1106K]
inactive: SHP2 C-SH2 domain E139D 0.256 | [1] 0.183 | SHP2 N-SH2 domain L43F 0.206 | SHP2 N-SH2 domain T42A 0.224 | SHP2 N-SH2 domain T52S 0.218 | [2] 0.359

NVKGIYAVGDV [GSR_Y371]
inactive: SHP2 C-SH2 domain E139D 0.845 | [1] 0.81 | SHP2 N-SH2 domain L43F 0.798 | SHP2 N-SH2 domain T42A 0.65 | SHP2 N-SH2 domain T52S 0.809 | [2] 0.965

RLNAIYQNNLT [GSR_Y158]
inactive: SHP2 C-SH2 domain E139D 1.04 | [1] 0.947 | SHP2 N-SH2 domain L43F 1.1 | SHP2 N-SH2 domain T42A 0.82 | SHP2 N-SH2 domain T52S 1.07 | [2] 0.865

NVKGIYAVADV [GSR_Y371_G374A]
inactive: SHP2 C-SH2 domain E139D 0.888 | [1] 1.07 | SHP2 N-SH2 domain L43F 0.797 | SHP2 N-SH2 domain T42A 0.698 | SHP2 N-SH2 domain T52S 0.888 | [2] 0.757

SYMVRYNQPRV [GRIN2D_Y736]
inactive: SHP2 C-SH2 domain E139D 1.39 | [1] 1.01 | SHP2 N-SH2 domain L43F 1.21 | SHP2 N-SH2 domain T42A 1.52 | SHP2 N-SH2 domain T52S 1.45 | [2] 1.32

GGKFSYLKVGH [GRM3_Y480_YF]
inactive: SHP2 C-SH2 domain E139D 0.965 | [1] 0.622 | SHP2 N-SH2 domain L43F 0.903 | SHP2 N-SH2 domain T42A 0.696 | SHP2 N-SH2 domain T52S 0.952 | [2] 1.04

ILCTVYAFKMR [GRM3_Y754_T758M]
inactive: SHP2 C-SH2 domain E139D 1.47 | [1] 1.53 | SHP2 N-SH2 domain L43F 1.08 | SHP2 N-SH2 domain T42A 1.21 | SHP2 N-SH2 domain T52S 1.35 | [2] 1.09

FFWDGYMPRQF [GSS_Y270_R267W_YF]
inactive: SHP2 C-SH2 domain E139D 1.35 | [1] 1.27 | SHP2 N-SH2 domain L43F 1.14 | SHP2 N-SH2 domain T42A 1.1 | SHP2 N-SH2 domain T52S 1.15 | [2] 1.15

DNLNNYVFQGQ [GRIN2A_Y978]
inactive: SHP2 C-SH2 domain E139D 0.995 | [1] 0.875 | SHP2 N-SH2 domain L43F 1 | SHP2 N-SH2 domain T42A 0.855 | SHP2 N-SH2 domain T52S 1.19 | [2] 1.3

AALLNYKAGRD [GRIN2A_Y737_V734L]
inactive: SHP2 C-SH2 domain E139D 1.03 | [1] 0.782 | SHP2 N-SH2 domain L43F 0.785 | SHP2 N-SH2 domain T42A 0.732 | SHP2 N-SH2 domain T52S 0.806 | [2] 0.92

YFRDGHMPRQY [GSS_Y270_Y270H]
inactive: SHP2 C-SH2 domain E139D 0.578 | [1] 0.485 | SHP2 N-SH2 domain L43F 0.659 | SHP2 N-SH2 domain T42A 0.661 | SHP2 N-SH2 domain T52S 0.485 | [2] 0.662
